Laboratory results published in paper PMC9911399, “Two distinct binding modes provide the RNA-binding protein RbFox with extraordinary sequence specificity”.
Positions count from the first letter of the chain named. This is one part of the list.

T1: RBFOX1 RRM (Homo sapiens, UniProt Q9NWB1 109-208)
T1 sequence: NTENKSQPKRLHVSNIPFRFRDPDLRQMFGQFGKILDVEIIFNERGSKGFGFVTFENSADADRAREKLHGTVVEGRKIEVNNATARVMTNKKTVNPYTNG

B1: GGCAACA (DNA:RNA)
RNA: GGGAGACCGGAAUUCAGAUUGUCCGGCAACAUUAAAUCCCGUCGUAGCCACCA
DNA 1: CAATCTGAATTCCGGTCTCCC
DNA 2: TGGTGGCTACGACGGGATT
B2: UCCUUUC (DNA:RNA)
RNA: B1 RNA with G25U, G26C, A28U, A29U, C30U, A31C
DNA 1: CAATCTGAATTCCGGTCTCCC
DNA 2: TGGTGGCTACGACGGGATT
B3: CCUGACC (DNA:RNA)
RNA: B1 RNA with G25C, G26C, C27U, A28G, A31C
DNA 1: CAATCTGAATTCCGGTCTCCC
DNA 2: TGGTGGCTACGACGGGATT
B4: UGCUGCG (DNA:RNA)
RNA: B1 RNA with G25U, A28U, A29G, A31G
DNA 1: CAATCTGAATTCCGGTCTCCC
DNA 2: TGGTGGCTACGACGGGATT
B5: ACCAUAG (DNA:RNA)
RNA: B1 RNA with G25A, G26C, A29U, C30A, A31G
DNA 1: CAATCTGAATTCCGGTCTCCC
DNA 2: TGGTGGCTACGACGGGATT
B6: UUUUAAG (DNA:RNA)
RNA: B1 RNA with G25U, G26U, C27U, A28U, C30A, A31G
DNA 1: CAATCTGAATTCCGGTCTCCC
DNA 2: TGGTGGCTACGACGGGATT
B7: AAAACUA (DNA:RNA)
RNA: B1 RNA with G25A, G26A, C27A, A29C, C30U
DNA 1: CAATCTGAATTCCGGTCTCCC
DNA 2: TGGTGGCTACGACGGGATT
B8: UUCUCAC (DNA:RNA)
RNA: B1 RNA with G25U, G26U, A28U, A29C, C30A, A31C
DNA 1: CAATCTGAATTCCGGTCTCCC
DNA 2: TGGTGGCTACGACGGGATT
B9: ACAUACG (DNA:RNA)
RNA: B1 RNA with G25A, G26C, C27A, A28U, A31G
DNA 1: CAATCTGAATTCCGGTCTCCC
DNA 2: TGGTGGCTACGACGGGATT

The binders below were run against T1, RBFOX1 RRM (assay: EMSA; HiTS-Eq, 1 nM pool, 10 min; buffer printed only for the single-RNA assays: 10 mM Tris pH 7.5, 150 mM NaCl, 3.4 mM EDTA, 0.001% NP-40, 30 C). Conditions: tags: His6 N-terminal (pET28a); label: 5' 32P.
Summary of the method: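 Purified RbFox RRM (wild type or mutant) was equilibrated for 10 min in 50 µL with 1 nM of a 5′-radiolabelled pool of RNA with 7 randomized nucleotides, its flanks annealed to DNA oligonucleotides, across increasing protein concentrations. Free RNA was separated by 8% native PAGE, excised, reverse-transcribed, PCR-barcoded and sequenced on an Illumina HiSeq 2500. Relative association constants came from read-count changes of each variant against the control reaction, normalised to the cognate motif.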

First: B1
Second: B2
The binding signal of the first is lower: 0.00797 KA relative to UGCAUGU for the first, 0.00863 KA relative to UGCAUGU for the second.

First: B3
Second: B4
The binding signal of the first is lower: 0.00582 KA relative to UGCAUGU for the first, 0.0333 KA relative to UGCAUGU for the second.

First: B5
Second: B6
The binding signal of the first is lower: 0.00248 KA relative to UGCAUGU for the first, 0.0134 KA relative to UGCAUGU for the second.

First: B7
Second: B8
The binding signal of the first is lower: 0.00178 KA relative to UGCAUGU for the first, 0.00382 KA relative to UGCAUGU for the second.

For B9, the binding signal was 0.003 KA relative to UGCAUGU.
